In PubChem BioAssay AID686978 (National Center for Advancing Translational Sciences (NCATS), 2013):
Out of some 420,000 compounds screened, about 64,000 (15%) were called active. This list was built around the results that the source calls inconclusive (neither active nor inactive); the mix of calls is not that of the screen. Calls follow the shape of the dose curve; as a rule, active = well fitted inhibition curve with a large enough effect; inconclusive = small, poorly fitted or top-dose-only effect; inactive = flat fitted curve, though single readings scatter. Potencies of inconclusive entries are left out as doubtful fits.

Assay: qHTS for Inhibitors of human tyrosyl-DNA phosphodiesterase 1 (TDP1): qHTS in cells in absence of CPT; also: nearly all actives have a fitted effect of over 55% in size
Settings: DT40 Tdp1-/- hTDP1 cells, no CPT, ATP luminescence, 48 h; activity change, negative = growth inhibition: at 46.2 µM (top of the series) unless noted
Method in brief: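 Growth kinetics read by CellTiter-Glo luminescence after ≥48 hr at 37 °C. Cells: DT40 Tdp1-/- stably carrying human TDP1, 400 per well, compound exposure in the absence of CPT (DMSO vehicle).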
% is scaled to controls: 0 for no effect and ±100 for the full control effect; potency is read from the fitted curve at half-maximal effect; tags tell the direction and shape of the fitted curve.

SMILES	activity change, negative = growth inhibition	Potency
O=C(O)c1ccc(Oc2nc3ccccc3s2)cc1	inactive: -3.47%	–
Cc1sc(NC(=O)c2ccc(F)cc2)c(CN2CCCCCC2)c1C	–	active: 13 µM
COc1ccc(-c2ccc3nnc(SCC(N)=O)n3n2)cc1	inactive: 0.336%	–
Cc1ccccc1CS(=O)(=O)c1cnc2ccccc2n1	–	active: 29.1 µM
CN(C)c1ccc(C(=O)OCC(=O)NCCC2=CCCCC2)cc1	–	inconclusive [inhibitor, single point]
O=C(NNc1nc(-c2ccccc2)c2cc(Br)ccc2n1)c1ccc(S(=O)(=O)N2CCCCC2)cc1	–	inconclusive [inhibitor, partial curve, poor fit]
CCCCn1c(SCC(=O)NC(=O)NCc2ccco2)nc2cc(S(N)(=O)=O)ccc21	–	inconclusive [inhibitor, single point]
O=C(N/N=C(\c1ccccc1)c1ccccn1)c1ccccc1Cl	–	inconclusive [inhibitor, full curve, poor fit]
O=S(=O)(c1ccc(S(=O)(=O)N(Cc2ccccc2)Cc2ccco2)cc1)N1CCCC1	–	inconclusive [inhibitor, partial curve]
O=C(COc1ccc(Cl)cc1)NNC(=O)c1ccccn1	–	inconclusive [inhibitor, single point]
CCN1CCCC1CNC(=O)c1cnn(-c2ncc3c(n2)-c2ccc(OC)cc2CC3)c1C1CC1 (stereo not given)	inactive: -20.7%	–
CCCCNC(=O)C1CCN(c2nc3ccc(C)cc3[nH]2)CC1	inactive: -20.5%	–
O=C(C[C@H]1C[C@H](C(=O)N2CCOCC2)[C@@]2(CCC3CCCC3)c3[nH]c4cc(-c5ccco5)ccc4c3CCN2C1=O)NCc1ccco1	–	active: 16.4 µM
COCCCNCCCCOc1c(Cl)cc(C)cc1Br	–	inconclusive [inhibitor, single point]
CN(Cc1ccco1)c1ncnc2ccc(-c3cccnc3)cc12	–	active: 18.4 µM
CCOc1ccc(-c2nc(C#N)c(NC3CC3)o2)cc1	–	inconclusive [inhibitor, single point]
Cc1ccc(C)c(NS(=O)(=O)c2ccc(OCC(=O)NCc3ccccn3)cc2)c1	–	inconclusive [inhibitor, single point]
COC(=O)c1ccc(Cc2ccc(C(=O)OC)o2)o1	inactive: -5.21%	–
CC(C)c1ccc(CN(Cc2ccco2)c2cnc(S(C)(=O)=O)nc2C(=O)Nc2ccccc2)cc1	–	active: 11.6 µM
COc1ccc2[nH]cc(/C=N/NS(=O)(=O)c3ccc(C)cc3)c2c1	–	active: 13 µM
Cc1cc2c3c(c1)C1(SCC(=O)N1c1ccc(F)cc1)C(=O)N3C(C)(C)CC2C (stereo not given)	–	inconclusive [inhibitor, single point]
CCCC(=O)Nc1ccc2c(c1)C(=O)N(CCC(=O)O)C2=O	inactive: -13.7%	–
CCCc1[nH]nc2c1C(c1ccc(OC)cc1OC)C(C#N)=C(N)O2 (stereo not given)	inactive: -14.2%	–
CCOC(=O)N1CCC2(CC1)CC(=O)c1c(ccc3oc(C(=O)O)c(C)c13)O2	inactive: -12.3%	–
O=C(NCc1ccc(F)cc1)c1cc(C2CCCCN2C(=O)c2cccs2)on1 (stereo not given)	–	inconclusive [inhibitor, single point]

SMILES	activity change, negative = growth inhibition	Potency
COc1ccccc1N1CCN(c2csc3ccccc3c2=O)CC1	–	inconclusive [inhibitor, single point]
COc1cccc(NC(=O)Cn2c(-c3nonc3N)nc3ccccc32)c1	inactive: -2.58%	–
CCOC(=O)c1ccc(NC(=O)CCC(=O)OC)cc1	inactive: -14.1%	–
O=S(=O)(c1ccc(SCCOc2ccccc2Cl)nc1)N1CCCC1	inconclusive: -31% [inhibitor]	–
CCN(CC)S(=O)(=O)c1cc([N+](=O)[O-])ccc1N=Nc1c(O)n(C)c2ccccc12	–	inconclusive [inhibitor, single point]
Cc1cccc(NC(=O)N2CCN3CCCCC3C2)c1C (stereo not given)	inactive: 2.69%	–
CCCc1cc(=O)oc2c(C)c(OCC(=O)NC3CC(C)(C)NC(C)(C)C3)ccc12	–	inconclusive [inhibitor, single point]
CCCn1c(N)c(C(=O)CSc2nncs2)c(=O)[nH]c1=O	inactive: -17.2%	–
COc1cc2c(cc1OC)C(c1ccccc1[N+](=O)[O-])=NCC2	–	active: 2.91 µM
Cc1cc(OCC(=O)Nc2nnc(C3CC3)s2)ccc1Cl	–	inconclusive [inhibitor, single point]
COc1cccc(OCC(=O)NC2CCS(=O)(=O)C2)c1 (stereo not given)	inactive: -1.72%	–
Cc1ccccc1OCCn1cc(/C(N)=N/O)c2ccccc21	–	inconclusive [inhibitor, single point]
COc1ccc(C(=O)Sc2ccc(Cl)cc2)cc1OC	–	active: 11.6 µM
COC(=O)c1cc2oc3ccccc3c2n1Cc1ccccc1Cl	inactive: -5.72%	–
COc1ccccc1CNC(=O)CCCCn1c(=O)c2ccccc2n(CC(=O)Nc2cccc(Cl)c2)c1=O	–	active: 9.2 µM
CCOc1ccc(/C=C/c2nc(C#N)c(N3CCC(C)CC3)o2)cc1	–	active: 13 µM
Cc1c(C=O)c2ccccn2c1C(=O)c1ccccc1	–	inconclusive [inhibitor, partial curve]
CC1CCCCN1C(=O)C(=O)c1cn(CC(=O)N2CCCCCC2)c2ccccc12 (stereo not given)	inconclusive: -32.9% [inhibitor]	–
COc1ccc(N2CCN(C(c3ccc4ncccc4c3)c3nnnn3C(C)C)CC2)cc1 (stereo not given)	inactive: 9.93%	–
CCc1ccc(Sc2cc(C(=O)NCCCN3CCC(C)CC3)c3ccccc3n2)cc1	–	active: 16.4 µM
CCCCOn1c(C)c(C(=O)OCC)c2c3nonc3ccc21	–	inconclusive [inhibitor, partial curve]
Oc1ccc(C[C@H]2CNC(=S)N2CC2CCCN2C[C@H](Cc2ccc(O)cc2)N2C[C@H](Cc3ccccc3)N(CC3CCCCCC3)C2=S)cc1 (stereo not given in full)	–	active: 4.11 µM
COc1ccccc1S(=O)(=O)Nc1ccc2nc(C)sc2c1	–	active: 20.6 µM
N#CCCN(Cc1ccncc1)C(=S)NC1CC2C=CC1C2 (stereo not given)	–	inconclusive [inhibitor, partial curve]
Clc1ccccc1CNCC1CCCO1 (stereo not given)	inactive: 0.899%	–
